Experimental data reported in the antibiotic and cytotoxicity screens of Wong et al. (2023).
This is one part of the list.

These compounds were tested on S. aureus RN4220 (assay: growth inhibition call (relative growth <= 0.2)). Details: 50 µM.

Growth inhibition call, inactive:
Cc1noc(C)c1NC(=O)N(C)C[C@@H]1OCCCC[C@H](C)Oc2ccc(NC(=O)Nc3ccc(F)cc3)cc2C(=O)N([C@@H](C)CO)C[C@@H]1C
Cc1ccc(S(=O)(=O)Nc2ccc3c(c2)C(=O)N([C@H](C)CO)C[C@@H](C)[C@H](CN(C)S(=O)(=O)c2ccc(C)cc2)OCCCC[C@@H](C)O3)cc1
CN1[C@@H]2c3ccc(-c4ccccc4)c(=O)n3C[C@H]1[C@H](CO)[C@H]2C(=O)NCCCN1CCOCC1
COc1ccc(S(=O)(=O)N(C)C[C@@H]2Oc3ccc(NC(=O)CCCN(C)C)cc3CC(=O)N([C@@H](C)CO)C[C@@H]2C)cc1
CO[C@@H]1CN(C)C(=O)c2ccc(NS(C)(=O)=O)cc2OC[C@@H](C)N(S(C)(=O)=O)C[C@H]1C
C[C@@H]1CN([C@H](C)CO)C(=O)c2ccccc2-c2ccccc2CO[C@H]1CN(C)S(=O)(=O)c1cn(C)cn1
C[C@@H]1CCCCO[C@@H](CN(C)C(=O)Nc2ccc(C(F)(F)F)cc2)[C@H](C)CN([C@@H](C)CO)C(=O)c2cc(NC(=O)NC3CCCCC3)ccc2O1
C[C@@H]1CN([C@H](C)CO)C(=O)CCCn2nncc2CO[C@@H]1CN(C)S(=O)(=O)c1ccccc1C#N
C[C@H](CO)N1C[C@H](C)[C@@H](CN(C)CC2CC2)Oc2c(NS(=O)(=O)c3cccs3)cccc2C1=O
C[C@H]1CN([C@@H](C)CO)C(=O)c2cc(NS(=O)(=O)c3cccs3)ccc2O[C@H]1CN(C)S(=O)(=O)c1cccs1
